# Assay results: PubChem BioAssay AID2451 (National Center for Advancing Translational Sciences (NCATS), 2010)
# Several values for one entry are separate records, joined by “and”; a condition that tells them apart may be missing. Equal entries are not always repeated. The whole screen tested about 290,000 compounds, of which about 2,100 (0.72%) were called active. The shares of active, inactive and inconclusive entries below differ from those in the screen. The call rests on the fitted dose curve; in most records, active means well fitted inhibition curve with a large enough effect; inconclusive means small, poorly fitted or top-dose-only effect, or effect the other way; inactive means flat fitted curve, though single readings scatter. Potencies beside an inconclusive call are fits to weak or partial responses and may not hold up.
# Molecular target: Fructose-bisphosphate aldolase (Giardia intestinalis (strain ATCC 50803 / WB clone C6)) (UniProt A8B2U2)
# Experiment: qHTS Assay for Inhibitors of Fructose-1,6-bisphosphate Aldolase from Giardia Lamblia; further: nearly all actives have a fitted effect of over 55% in size
# Conditions: purified Giardia FBPA; series mostly up to 59.6 µM
# Summary of the method: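 Giardia FBPA (40 nM reagent) was preincubated 10 min at RT with compound (up to 57.5 uM final), then substrate plus GAPDH/TPI/NAD/arsenate coupling system with diaphorase/resazurin was added; resorufin fluorescence (525/598 nm) was read after 20 min.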
# Potency means the concentration at half of the fitted maximal effect; tags describe the fitted curve by direction and shape.
# UniProt A8B2U2, sequence (A8B2U2 whole entry, looked up): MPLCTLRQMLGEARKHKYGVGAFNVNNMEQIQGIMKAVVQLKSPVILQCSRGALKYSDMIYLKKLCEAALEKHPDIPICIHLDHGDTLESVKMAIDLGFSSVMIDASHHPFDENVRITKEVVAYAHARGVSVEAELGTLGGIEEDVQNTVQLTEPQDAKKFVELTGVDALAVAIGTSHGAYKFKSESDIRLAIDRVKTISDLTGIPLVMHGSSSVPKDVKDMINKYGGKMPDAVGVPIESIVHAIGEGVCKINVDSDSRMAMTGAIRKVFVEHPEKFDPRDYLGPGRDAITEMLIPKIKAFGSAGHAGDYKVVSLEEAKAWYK
row,SMILES,Potency
1,Nc1ccc(S(=O)(=O)NC2=NCCCCC2)cc1N,"inconclusive: 14.1 µM [inhibitor, partial curve]"
2,C/C(CC(=O)Nc1ccc(C)c(Cl)c1)=N\NC(=O)c1ccncc1,"inconclusive: 19.9 µM [inhibitor, single point]"
3,Brc1ccc(OCc2nc(-c3ccccn3)n[nH]2)cc1,"inconclusive: 3.97 µM [inhibitor, single point]"
4,CC(C)NC(=O)C(C)N1CCN(S(=O)(=O)c2ccc3ccccc3c2)CC1 (configuration not stated),"inconclusive: 25.1 µM [inhibitor, single point]"
5,c1ccc2c(CCNC3CCCCC3)c[nH]c2c1,"inconclusive: 14.1 µM [inhibitor, partial curve]"
6,CN=C1S/C(=C\c2ccc(N3CCOCC3)cc2C)C(=O)N1C,inactive
7,CC(=O)N(O)CCCCCNC(=O)CCC(=O)N(O)CCCCCNC(=O)CCC(=O)N(O)CCCCCN,"inconclusive: 0.446 µM [inhibitor, full curve]"
8,CCOc1ccccc1NC(=O)C(NCCN(C)C)c1ccccc1 (configuration not stated),"inconclusive: 17.7 µM [inhibitor, partial curve]"
9,O=C(c1cccnc1)N1CCN(Cc2cccc(Br)c2)CC1,"inconclusive: 15.8 µM [inhibitor, single point]"
10,CC(C)(C)c1ccc(OCC(=O)NNC(=S)NC(=O)c2ccccc2[N+](=O)[O-])c(Br)c1,"inconclusive: 15.8 µM [activator, partial curve]"
11,Cc1ccc(Cl)cc1NC(=S)N1CCC(c2ccccc2)C1 (configuration not stated),inactive
12,CC(C)Oc1ccccc1C1CC(=O)Nc2cc3c(cc21)OCO3 (configuration not stated),"inconclusive: 17.7 µM [inhibitor, single point]"
13,COC(=O)C1C2CC3c4[nH]c5cc(OC)ccc5c4CCN3CC2CC(OC(=O)c2cc(OC)c(OC)c(OC)c2)C1OC (configuration not stated),"inconclusive: 15.8 µM [inhibitor, partial curve] and inconclusive: 9.98 µM [inhibitor, partial curve]"
14,c1cnc2c(c1)ccc1cccnc12,active: 19.9 µM
15,CCOC(=O)C1(Cc2ccccc2C)CCCN(Cc2cc(OC)c(O)c(OC)c2)C1 (configuration not stated),"inconclusive: 22.3 µM [inhibitor, partial curve]"
16,CCCn1c(=O)c2ccccc2n2c(=S)[nH]nc12,"inconclusive: 28.2 µM [inhibitor, single point]"
17,CCc1nnc(NC(=O)[C@@H]2CCCN2S(=O)(=O)c2ccc3c(c2)OCCO3)s1,inactive
18,O=c1[nH]c(NCCO)nnc1Cc1ccccc1,inactive
19,Cc1ccn2cc(C(=O)Nc3ccc4c(c3)OCCO4)nc2c1,inactive
20,O=C(N/N=C/c1ccc(O)c2ncccc12)c1cccc(Br)c1,"inconclusive: 35.4 µM [inhibitor, single point]"
21,O=C(c1cccc2ccccc12)N1CCN(CC2CC=CCC2)CC1 (configuration not stated),"inconclusive: 15.8 µM [inhibitor, partial curve]"
22,COc1ccccc1N1CCN(Cc2ccc(O)c3ncccc23)CC1,"inconclusive: 5.61 µM [inhibitor, partial curve]"
23,Cc1ccccc1-c1nc(NC2CC2)c2ccccc2n1,inactive
24,CCC(C)C(NC(=O)C(Cc1ccc(O)cc1)NC(=O)C(N)C(C)C)C(=O)NC(Cc1cnc[nH]1)C(=O)N1CCCC1C(=O)NC(Cc1ccccc1)C(=O)O (configuration not stated),inactive

row,SMILES,Potency
1,CC(=O)Nc1nc(=S)n(-c2ccccc2)[nH]1,"inconclusive: 5.61 µM [inhibitor, partial curve]"
2,Cc1cc(C)c(NC(=O)CSc2nc3ncc(Cl)cc3[nH]2)c(C)c1,"inconclusive: 25.1 µM [inhibitor, partial curve]"
3,CC1(OC(=O)C2CCCC2)C(=O)C=C2C=C(c3ccsc3)N(c3ccccc3)C=C2C1=O (configuration not stated),"inconclusive: 0.998 µM [inhibitor, full curve]"
4,CC(=O)N(C)c1ccc(N=NC2C(=O)N(C(N)=S)N=C2C)cc1 (configuration not stated),"inconclusive: 3.16 µM [inhibitor, partial curve]"
5,Cc1nc(SCc2cccnc2)[nH]c(=O)c1C,"inconclusive: 11.2 µM [inhibitor, partial curve]"
6,CCc1ccc(OCc2cnc(Cl)s2)cc1,inactive
7,COCCNC(=O)c1c(N)sc2c1CCCC2,"inconclusive: 15.8 µM [inhibitor, single point]"
8,CCC(=O)Nc1cccc(SC)c1,inactive
9,O=C(Nc1nnc(S(=O)(=O)N2CCCCCC2)s1)c1ccccc1,"inconclusive: 14.1 µM [inhibitor, partial curve]"
10,O=C(N/N=C/c1cccs1)c1ccc(NC(=O)c2ccccc2Cl)cc1,inactive
11,CCCCn1c(C)nc2c(=O)n(C)c(=O)[nH]c21,"inconclusive: 15.8 µM [inhibitor, single point]"
12,COc1ccc(CNCCc2cccc(F)c2)c2ccccc12,"inconclusive: 8.91 µM [inhibitor, partial curve]"
13,CCOc1cc(-c2ccc3c(c2)OCO3)cc(=O)c2c(C)oc(C)c12,"inconclusive: 17.7 µM [inhibitor, single point]"
14,O=C(CSc1nnc(NC(=O)c2c(F)cccc2F)s1)NC1CCCC1,"inconclusive: 28.2 µM [inhibitor, partial curve]"
15,CN(C(=O)Nc1ccccc1)C1CCCCC1,inactive
16,COc1ccc(-c2nc(CS(=O)CC(=O)NCc3ccc4c(c3)OCO4)c(C)o2)cc1 (configuration not stated),inactive
17,CCOC(=O)N1CCN(CC(O)COCC2=CCC3CC2C3(C)C)CC1 (configuration not stated),"inconclusive: 15.8 µM [inhibitor, partial curve]"
18,COCc1c(N)c(C)nc(Cl)c1C#N,"inconclusive: 15.8 µM [inhibitor, partial curve]"
19,Cn1nnnc1SCC1=C(C(=O)O)N2C(=O)C(NC(=O)C(OC=O)c3ccccc3)C2SC1 (configuration not stated),"inconclusive: 15.8 µM [inhibitor, single point]"
20,CCOC(=O)C1(CCOc2ccccc2)CCN(Cc2cccc(F)c2)CC1,inactive
21,Cc1ccccc1NCc1ccc(O)c2ncccc12,inactive
22,O=C(OCC(=O)N1CCc2ccccc21)c1ccccn1,inactive
23,O/N=C/c1cn(-c2ccccc2)nc1-c1ccc2c(c1)OCCO2,inactive
24,COc1ccc(OC)c(CN2CCN(Cc3cccc4ccccc34)CC2)c1,"inconclusive: 14.1 µM [inhibitor, partial curve]"

row,SMILES,Potency
1,CCCSP(=S)(OCC)Oc1ccc(Cl)cc1Cl (configuration not stated),"inconclusive: 12.6 µM [inhibitor, partial curve]"
2,Cc1ccc(S(=O)(=O)N(C(=O)c2ccncc2)c2ccc(OC(=O)c3ccncc3)c3ccccc23)cc1,inactive
3,NS(=O)(=O)c1ccc(CCNC(=O)C(=O)NCC2OCCN2S(=O)(=O)c2ccc(Cl)cc2)cc1 (configuration not stated),inactive
4,CCNc1nc(SCC(N)=O)nc2sc3c(c12)CCN(C)C3,"inconclusive: 31.6 µM [inhibitor, partial curve]"
5,Cc1cccc(C)c1OCCCCN1CCCCC1,"inconclusive: 22.4 µM [inhibitor, single point]"
6,COC(=O)C1=C(CCc2ccccc2)NC(=O)NC1c1ccc(Br)cc1 (configuration not stated),inactive
7,O=C(OCC1O[C@@H](OC(=O)c2cc(O)c(O)c(O)c2)[C@@H](OC(=O)c2cc(O)c(O)c(O)c2)[C@@H](OC(=O)c2cc(O)c(O)c(O)c2)[C@@H]1OC(=O)c1cc(O)c(O)c(O)c1)c1cc(O)c(O)c(O)c1 (some centres not stated),"inconclusive: 5 µM [inhibitor, partial curve]"
8,Clc1cccc(-c2sc(Nc3ccccc3)n[n+]2-c2ccccc2)c1Cl,"inconclusive: 39.8 µM [activator, single point]"
9,S=C(Nc1ccc2cn[nH]c2c1)Nc1ccccc1Cl,"inconclusive: 0.63 µM [inhibitor, full curve]"
10,CCC(Cc1c(I)cc(I)c(N)c1I)C(=O)O (configuration not stated),inactive
11,COc1ccc(C(=O)Nc2nc(N3C(=O)c4ccccc4C3=O)n(-c3ccccc3)n2)cc1,"inconclusive: 17.7 µM [inhibitor, single point]"
12,CCC(NC(C)C)C(O)c1ccc(O)c(O)c1 (configuration not stated),active: 2.81 µM
13,COc1cccc2cc(C(=O)c3ccccc3)oc12,inactive
14,Cc1cc(C)c2c(CN3CCN(Cc4ccccc4)CC3)cc(=O)oc2c1,"inconclusive: 25.1 µM [inhibitor, single point]"
15,N#CC1=C(N)C(C#N)(C#N)C2(C(=O)Nc3ccccc32)C2CCCC=C12 (configuration not stated),"inconclusive: 14.1 µM [inhibitor, partial curve]"
16,CC1C/C(=N\NC(=S)NC(C)C)CC(C)(C)C1 (configuration not stated),"inconclusive: 19.9 µM [activator, single point]"
17,COc1cc2c(cc1OC)-c1c(OC)c(OC)cc3c1C(C2)N(C)CC3 (configuration not stated),"inconclusive: 0.177 µM [inhibitor, full curve]"
18,CC(C)OC(=O)c1c(NC(=O)Cn2cnc([N+](=O)[O-])n2)sc2c1CCCC2,inactive
19,CCn1c(CSc2nnc(-c3ccncc3)n2C)nc2cc(C(=O)O)ccc21,"inconclusive: 17.7 µM [inhibitor, single point]"
20,COc1cccc(OC)c1C(=O)Nc1ccccc1N1CCCCC1,inactive
21,Cc1ccc(NC(=O)c2cc(N3C(=O)C=CC3=O)ccc2N2CCOCC2)cc1Cl,inactive
22,N#CC1=C(N)N(c2ccc(Br)cc2)C2=C(C(=O)CCC2)C1c1cccnc1 (configuration not stated),"inconclusive: 5.61 µM [inhibitor, full curve]"
23,O=C(CSc1ncn[nH]1)c1ccc2c(c1)OCCO2,"inconclusive: 31.5 µM [inhibitor, single point]"
24,Cc1cc(C)nc(NN=C2CCCC2)n1,"inconclusive: 3.97 µM [inhibitor, full curve, poor fit]"
